The record followed here is ChEMBL document CHEMBL4888484, “Replenishing the malaria drug discovery pipeline: Screening and hit evaluation of the MMV Hit Generation Library 1 (HGL1) against asexual blood stage Plasmodium falciparum ,using a nano luciferase reporter read-out” (2022).

The structures appear in SMILES notation. Hit rate of the full screen: of about 150,000 compounds, about 540 (0.36%) showed an effect of 50% or more. The list shows a part of the results.

This assay relates to Plasmodium falciparum. Nature of the assay: Primary screen in NF54 nanoGlo assay, in single point, at 2uM, 72h; a lower Z score goes with more inhibition. The settings on record: timepoint 72 hour. Format: functional, Erythrocyte.
In the case of `c1cnc(N2CCOCC2)c(CN[C@H]2CCOCC23CCCCC3)c1`, the % Inhibition (as a rule, the drop in the measured response relative to a control, in per cent) is recorded as -8% and the Z score amounted to 1.34.

Take `CCNC(N)=NCCc1ccc2[nH]ccc2c1`: the “% Inhibition” value was -9% and the Z score stood at 0.99.

For the compound `COc1ccc(-c2cc(C(=O)NCCc3ccccc3)c3c(-c4ccc(Cl)cc4)[nH]nc3n2)cc1`, the “% Inhibition” value is given as -5% and the Z score worked out at 0.69.

In the case of `Cc1cnc(C)c(NCC(C)N2CCOCC2C)n1` (centres undefined), the “% Inhibition” value is -12% and the Z score was determined as 1.34.

Turning to `CN1CCCN(c2ccc(CNC(=O)c3cnn(Cc4ccccc4)c3)cn2)CC1`, the “% Inhibition” value is given as -9% and the Z score was determined as 1.45.

Take `Cc1cc2[nH]c(C(=O)Nc3ccc(F)c(F)c3)c(CN3CCOCC3)c2s1`: the “% Inhibition” value is recorded as -11% and the Z score came to 1.05.

For `N#CCc1ccc(Br)c(Cl)c1`, the “% Inhibition” value is reported as -10% and the Z score is listed as 1.51.

As for `O=C(Nc1ccc(F)c(Cl)c1)C1C2CCCCC21` (centres undefined), the “% Inhibition” value is -1% and the Z score was found to be 0.09.

On to `Clc1ccccc1-c1nc2ccccc2n1CCC1CCCCC1`, for which the “% Inhibition” value is given as -9% and the Z score stood at 1.19.

Take `C[C@H](Oc1ccc(Cl)cc1)C(=O)Nc1nc2c(s1)CCC2`: the “% Inhibition” value stood at 3% and the Z score is on record as -0.34.

In the case of `COC(=O)C1C2CCC(C2)C1NC(=O)Nc1nccs1` (centres undefined), the “% Inhibition” value is 7% and the Z score is -1.26.

As to `O=C(NCC1CC12CCc1ccccc12)N1CCC(N2CC=CC2)C1` (centres undefined), the “% Inhibition” value is recorded as -13% and the Z score came out at 1.89.

Take `CC(C)CO[C@@H](C)c1noc(CN2CCC(NC(C)C)CC2)n1`: the “% Inhibition” value is reported as 2% and the Z score is given as -0.27.

On to `CC(=O)N1C[C@@H](COc2ccccc2)[C@H](C2CCN(C(=O)Cc3cccc(C)c3)CC2)C1`, for which the “% Inhibition” value is -11% and the Z score is recorded as 1.31.

Consider `O=C(C[C@@H](c1cccc(Cl)c1)c1ccccc1O)N[C@H]1CC[C@H](O)CC1`, for which the “% Inhibition” value is reported as 10% and the Z score is -1.29.

As for `Cc1csc(N(C)C(=O)CCc2cncn2C)n1`, the “% Inhibition” value is -8% and the Z score was determined as 1.26.

For the compound `Cc1nsc(C)c1C(=O)NC[C@H]1CCCCN1C(=O)c1c(C)nsc1C`, the “% Inhibition” value is on record as -6% and the Z score turned out to be 0.69.

For `CN(Cc1ccccc1)C(=O)[C@@H]1Cc2nc[nH]c2CN1`, the “% Inhibition” value is on record as 33% and the Z score is on record as -3.71.

Take `Cc1ccc2nc(CCCNC(=O)c3cnn[nH]3)oc2c1`: the “% Inhibition” value is -16% and the Z score was 1.7.

On to `CCCc1cc([C@@H]2CCCN2Cc2ccc(OC)c(CN3CCOCC3)c2)no1`, for which the “% Inhibition” value is reported as -14% and the Z score is 1.9.

Turning to `CCN(C(=O)c1c(F)ccc(F)c1F)c1ccncc1`, the “% Inhibition” value came to 1% and the Z score is recorded as -0.23.

With `O=C(COc1ccccc1)Nc1cccc(OCCn2cncn2)c1`, the “% Inhibition” value is recorded as -7% and the Z score is 0.91.

Turning to `CN1CCCC[C@H]1c1nc(-c2cccnc2Oc2ccccc2)no1`, the “% Inhibition” value is 3% and the Z score is -0.52.

With `C[C@@H](c1ccc(Cl)cc1)N(C(=O)c1cccc[n+]1[O-])C1CC1`, the “% Inhibition” value is given as 1% and the Z score is given as -0.09.

For `COc1cc(N2CCN(C(=O)[C@H]3OCC[C@H]3C)CC2)cc(OC)c1OC`, the “% Inhibition” value amounted to 0% and the Z score was 0.04.

Consider `O=C(NC[C@H]1CCCOC1)Nc1ccc2cccnc2c1`, for which the “% Inhibition” value is on record as 5% and the Z score is given as -0.5.

As for `Cc1conc1CNc1ccc(S(C)(=O)=O)cn1`, the “% Inhibition” value is reported as -5% and the Z score stood at 0.85.

For the compound `COc1ccc(S(=O)(=O)N2CCCc3ccccc32)cn1`, the “% Inhibition” value worked out at 0% and the Z score is -0.05.

As to `Cc1noc(CCCNC(=O)C(=O)Nc2ccc3c(c2)CCC3)n1`, the “% Inhibition” value is reported as -4% and the Z score is recorded as 0.52.

Turning to `CC[C@H](NC(=O)CCCn1cncn1)c1nc(C)c(C)s1`, the “% Inhibition” value was 3% and the Z score was -0.53.

Take `CC(C)c1ccc(NC(=O)[C@@H](c2ccc3c(c2)OCO3)N2CCC3(CC2)OCCO3)cc1`: the “% Inhibition” value is recorded as -11% and the Z score was determined as 1.63.

Turning to `Cc1nc(C)c(C(=O)NCC2CCN(C(=O)[C@H]3C[C@@H]4C=C[C@H]3C4)CC2)s1`, the “% Inhibition” value is given as -4% and the Z score is recorded as 0.8.

With `O=C(Nc1ccc2c(c1)OC(F)(F)O2)c1cnn(-c2ccc(=O)[nH]n2)c1C(F)(F)F`, the “% Inhibition” value was -7% and the Z score was 1.11.

Turning to `Cc1cc(NC(=O)N2CCOC[C@@H]2CC2CCOCC2)c(C)cn1`, the “% Inhibition” value was -13% and the Z score was found to be 2.18.

Turning to `Cc1ccc(F)c(C(=O)N[C@H]2C[C@H](c3cc(=O)[nH]cn3)C2)c1Cl`, the “% Inhibition” value is recorded as -18% and the Z score is 1.81.

In the case of `CS(=O)(=O)N1CCC(C(=O)Nc2nc(-c3ccc4c(c3)OCCO4)cs2)CC1`, the “% Inhibition” value is recorded as -3% and the Z score came out at 0.46.

For `Cn1ccc(CC(=O)N2CC[C@H](c3cccc(Cl)c3)C2)n1`, the “% Inhibition” value is given as -5% and the Z score was found to be 0.62.

In the case of `Cc1ccc(NS(=O)(=O)c2c(C)[nH]c(-c3nnc(C4CC4)o3)c2C)cc1C`, the “% Inhibition” value is listed as -7% and the Z score is given as 0.96.

Regarding `O=S(=O)(c1cccc2nsnc12)N1CC[C@H](c2ncon2)C1`, the “% Inhibition” value stood at 5% and the Z score was -0.83.

In the case of `O=S(=O)(CC1CCOC1)N1CCC(C(O)C(F)(F)F)CC1` (centres undefined), the “% Inhibition” value is on record as -14% and the Z score came out at 1.24.

Take `COc1ccc(S(=O)(=O)NCc2cnn(C)c2)c2nonc12`: the “% Inhibition” value was -11% and the Z score came out at 1.3.

Regarding `Cc1nn(-c2ccccc2)c(Oc2ccccc2)c1CN(CC1CC1)C(=O)c1ccccc1Cl`, the “% Inhibition” value was determined as 13% and the Z score was -1.29.
